The results in this text go back to the RNAGym collection of RNA variant scans (doi:10.7554/elife.90254).

To fix the notation:
B1: LINE1-mini (parent)
chain: GGCAGAGCUCAACACAGCGUGGCAAAGUGGCUGUGGCUAGACUGCC

Read counts are not given, so values of variants with three or more changes are uncertain.

The variants in the data set derive from B1. Put plainly: self-cleavage, relative activity (ratio to wild type); higher = more cleavage; in vitro, sequencing; the parent is a self-cleaving ribozyme.
In the case of G2A C3G C18U, the self-cleavage stood at 0.66.
With G2A A14U G19C G35U, the self-cleavage was determined as 0.77.
In the case of G2A C3A A6C it was 1.48.
For G2A C15A G27A U28G, the self-cleavage turned out to be 0.2.
On to G1U U32G A41G, for which the self-cleavage is 0.05.
As to G2A C10A G27U U34G G44U, the self-cleavage turned out to be 0.02.
For G2A A6G G17C G40C the value was 0.08; for G2A C3U C23U U32C U38G C42U, 0.07; for G2A C10U A26G U32G, 0.11.
As for G2A C10A U34A, the self-cleavage was 0.05.
G2A A4U G21C A24U G36U: the self-cleavage is 0.12.
G2A C10U U20G A24C C42A: the self-cleavage was determined as 0.06.
For G2A C8A G17U U20A A41C the value was 0.52.
For G2A C15A C37A the value was 0.2.
For G2A C3U U20C the value was 0.81; for G2A C8U G17U, 0.41.
Turning to G2A C3A C13G G22C A24G G44C, the self-cleavage stood at 0.11.
For G2A A4C G21C the value was 0.09; for G2A C10U G21C G22U, 0.08.
As to G2A A12C A16C U20A C37G A39U, the self-cleavage turned out to be 0.02.
In the case of G2A C10A G35U it was 0.03; in that of G2A A6C G7C C8G C15G G35C A39G U43A C45A, 0.1; in that of G2A A12U U38A A41C C46A, 0.02.
In the case of G2A C8G A41C it was 0.06; in that of G2A C15A G36A A39G, 0.21.
For G2A C10A G36U G44U the value was 0.03.
For G2A C15U C18A G30U, the self-cleavage worked out at 0.11.
Take G2A C15A G21A G35U U43C: the self-cleavage was 0.1.
On to G2A A14U A39C, for which the self-cleavage was 0.06.
Turning to G2A C3G A16G C45A, the self-cleavage was determined as 0.63.
For G2A A26C C37U the value was 0.1; for G2A A11U C15A A16U U32C, 0.06; for G2A C15A C18U G21C, 0.24.
In the case of G2A A6C G17A it was 0.09; in that of G2A C13U U32G U34G, 0.06.
In the case of G2A A41G G44C it was 0.1; in that of G2A A12U G21C G30A C37A, 0.97; in that of G2A C8G G29U, 0.08.
As to G2A C10U A26G G27A G40U, the self-cleavage was 0.07.
For G2A A6C G17U G21A the value was 0.12; for G2A C3U C45U, 0.47; for G2A A11U U20A, 0.01.
As to G2A C3A A6C C10G G17U C37G, the self-cleavage was found to be 0.08.
In the case of G2A C8U A24G G44U C45G it was 0.13; in that of G2A A12C G27A, 0.03; in that of G2A C3A A12C G17U, 0.05.
In the case of G2A C10A A12C U38C C42U, the self-cleavage amounted to 0.06.
In the case of G2A A11U G35U it was 0.01; in that of G2A A12C A14G G35A C37G, 0.02.
For G1U U32C C42A U43G, the self-cleavage amounted to 0.03.
For G2A A12G G29A C46A the value was 0.11; for G2A A4G U32C, 0.14; for G2A A11U A25U C31A G36A U38A, 0.02.
In the case of G2A C3A A24U C37A C46U, the self-cleavage amounted to 1.37.
G2A A12G A39U: the self-cleavage turned out to be 0.13.
As for G2A C8U G40C G44U C45A, the self-cleavage is 0.26.
In the case of G2A A16G C31A A39U, the self-cleavage turned out to be 0.08.
Consider G1U U38G A41G, for which the self-cleavage worked out at 0.
Consider G2A A6C G36A G40C, for which the self-cleavage worked out at 0.08.
In the case of G2A C13G G40A it was 0.15.
With G2A C13G A14C, the self-cleavage turned out to be 0.15.
In the case of G2A C3U A14G it was 0.5; in that of G2A A14U A24C A39G, 0.11.
For G2A C15A C46U the value was 0.24; for G2A C15U G21U G30U C31U, 0.08; for G2A C8A U9A A24C G40U, 0.4.
For the variant G2A A12G A25U, the self-cleavage amounted to 0.02.
G2A C3G U32C U34G G35U G36A: the self-cleavage stood at 0.14.
Take G2A C3A U32A C42G C46G: the self-cleavage worked out at 0.73.
In the case of G2A A12C G36A it was 0.17; in that of G2A C13G C31G G33C U38C, 0.02.
For G2A A14C C31A C45G the value was 0.17; for G2A A4U C15G G22C G27A G29C C31G, 0.01.
As to G2A C15A C23U A24U U34A G36A C46A, the self-cleavage was 0.17.
For G2A C10G C42U C46A the value was 0.01.
Turning to G2A C3A G29A C45G, the self-cleavage was 1.17.
For G2A A4G G7U G22U G27A U28G G29U G30A U32C the value was 0.21; for G1U U34C C37A A41C C45G, 0.08.
On to G2A A4U A16U U34A, for which the self-cleavage amounted to 0.18.
For the variant G2A C13A G35A, the self-cleavage is 0.06.
In the case of G2A C10G U34G it was 0.2; in that of G2A C3A U32C, 1.26; in that of G2A C8G C15A G36C, 0.07.
G2A C15G C31A U43C C46A: the self-cleavage was 0.03.
In the case of G2A A11G U20A G22U A24G G36U it was 0.02; in that of G2A C8U G30U G36U, 0.66; in that of G2A C18A A26U G29U A41G C42G, 0.02.
In the case of G2A C3U C10A A16U A24U A25C A41C it was 0.03; in that of G2A C8U A14G C15G, 0.54.
For G2A C10A G30U G36C the value was 0.03; for G2A A6C A26C G27C U32C, 0.02; for G2A A6U G17U, 1.48.
Consider G2A C3A C23A A24C G27U U32A G40A C42A, for which the self-cleavage came to 0.63.
Regarding G2A A11C U20G U28C C46U, the self-cleavage is 0.01.
For the variant G2A C13U A14U U20G A25U, the self-cleavage is 0.3.
For G2A C10U A11C G22A G27U U34A the value was 0.02; for G2A A6G C13A A26U, 0.08.
On to G2A C10U C13A, for which the self-cleavage is 0.1.
For G2A A4G G7A G30A C31A G44C, the self-cleavage was 0.23.
For G2A A16U C31G the value was 0.05; for G2A C3A A24C U28A C37U A41G C42U, 0.07; for G2A C3G A25U, 0.54.
For the variant G2A A11U A16C, the self-cleavage was determined as 0.06.
In the case of G2A A12G C13A G29C it was 0.11; in that of G2A A4C G40A U43C C45U, 0.1.
Turning to G2A C3A C10U A26C C31G U32A, the self-cleavage came to 0.18.
In the case of G2A A14U G29C G35A it was 0.17.
With G2A C10A C13U G21U, the self-cleavage was found to be 0.06.
For G2A C8U U28A G44U the value was 0.06.
G2A C8A A11C A12U A41C: the self-cleavage amounted to 0.01.
For G2A C10G C31U U32C the value was 0.04; for G2A A25C A39G, 0.12.
For G2A A4G G22C U43A the value was 0.06; for G2A A4G G5A, 0.12.
Turning to G2A A11U G33U, the self-cleavage came out at 0.04.
For G2A C3U G17U the value was 0.41; for G2A C13A C15A G29C G30U A39C, 0.03; for G2A A25G U34C C42G, 0.18.
In the case of G2A C3G C23U it was 0.59; in that of G2A A6G C10G U28C U38G, 0.01.
In the case of G2A C3G G7A C15A it was 0.3; in that of G2A A6C C13A C18U A41C, 0.16; in that of G2A C3A G19C, 0.67.
G2A A16C A24U A25G G40U: the self-cleavage came to 0.03.
Regarding G2A C13U C45G, the self-cleavage is 0.2.
G2A C10A C37G: the self-cleavage came out at 0.02.
In the case of G2A A14U C18A C23U A25U C46U it was 0.05; in that of G2A A6C G44C, 0.35; in that of G2A A24U U32G, 0.12.
As to G2A C3U C18U U20C G33U C42U C46U, the self-cleavage came out at 0.22.
On to G2A A6C A12G U20G U38A C42A C46A, for which the self-cleavage was found to be 0.13.
On to G2A C13U U28C C42U, for which the self-cleavage is 0.43.
In the case of G2A C10A A12U A25C C31U C46A it was 0.01.
For G2A C13A U20C G22C G35A U38A the value was 0.12; for G2A A4U A6C C37G G40U, 0.02.
On to G2A A16G G21C C31A, for which the self-cleavage came to 0.12.
For G2A C3A G33C the value was 0.1.
For G2A A16U U20C G35C G40U G44C the value was 0.11; for G2A A11G A14U A16U A25C G30U, 0.01.
For G2A A12C G33C G40A the value was 0.02; for G2A C3U C8A C10G, 0.09.
For the variant G2A C8G G30A U32G G36U C45G, the self-cleavage is 0.05.
As to G2A A11G G30U G35U G44A, the self-cleavage is 0.01.
On to G2A A4G U9G G19U C31U, for which the self-cleavage is 0.04.
In the case of G2A A16C G21A it was 0.02; in that of G2A C10U U32A, 0.04; in that of G2A C3U G5A C15G, 0.15.
Turning to G2A C8G G27U, the self-cleavage was 0.02.
Take G2A C8G A16U C37U: the self-cleavage stood at 0.05.
G2A A11C G19C G35C C37U: the self-cleavage amounted to 0.02.
For G2A C3A C13A the value was 2.66; for G2A C8U U28G A39C C42U, 0.47.
G2A C10U A12U A25C U28G G30C G35U G40U: the self-cleavage was 0.02.
With G2A A25G U32A C42U G44U, the self-cleavage is 0.09.
Regarding G2A A6U C13U G19C, the self-cleavage stood at 0.08.
In the case of G2A C13G A25U it was 0.17; in that of G2A A24G U32C G44U, 0.15.
With G1U U38A C42U U43C C45G, the self-cleavage worked out at 0.06.
For G2A A26C A39U the value was 1.83; for G2A C15A C42G, 0.37.
In the case of G2A C10A A14C G44A it was 0.04; in that of G2A C15A C18U U28G G36A, 0.01; in that of G2A A11C A24U A41C C45U, 0.
Regarding G2A A11G C15U, the self-cleavage was 0.05.
For G2A A16C G22U G33A U43G the value was 0.03; for G2A C10A G36U U43C, 0.03; for G2A A16C C37U G40U, 0.2.
